# From PubChem BioAssay (NCATS)
# Inconclusive results, whose numbers are uncertain, are shown with a selection of clear calls. For part of these data: A potency beside an inconclusive call is a rough fit, not a confirmed value. For part of these data: A note “side channel” means that the fit belongs to a control or component signal, not to the main read-out. Activity calls are given as the source filed them. Unless noted, calls follow the shape of the full dose curve.
# Legend:
# [1] = MultiTox-Fluor Cytotoxicity Assay - LYMP1-002 - Dead Cells (AID 960; active = well fitted curve in the direction sought with a large enough effect; inconclusive = small, poorly fitted or top-dose-only effect, or another doubt; inactive = no such curve, though single readings can be large; an effect the other way counts as inactive or inconclusive; also: nearly all actives have a fitted effect of over 60% in size); conditions: LYMP1-002 lymphoblastoid cells, dead-cell protease fluorescence; cytotoxicity (dead cells): at 46.1 µM (top of the series)
# How it was run: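 LYMP1-002 cells 2500/well; 5 hr 37 C pre-incubation; compound 16 hr 37 C; MultiTox-Fluor reagent 60 min RT; dead-cell fluor Ex/Em 485/520. Norm. to DMSO (0%) vs 15 uM tetraoctylammonium bromide (100%); Hill AC50.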
# [2] = biological target: Glucocorticoid receptor (Homo sapiens) (UniProt P04150); experiment: qHTS assay for small molecule agonists of glucocorticoid receptor signaling (AID 588532; active = well fitted curve in the direction sought with a large enough effect in the signal ratio, with a control signal flat; inconclusive = small, poorly fitted or top-dose-only effect, or a change in a side signal; inactive = no such curve, though single readings can be large or run the other way; the % refers to the signal ratio; also: potency is read from the fitted curve at half-maximal effect;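 as to activation: 100% = dexamethasone at 0.1 µM and 0% = DMSO only wells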); conditions: HeLa MMTV-bla, beta-lactamase ratio, agonist, 18 h; activation: stronger effect = higher value, percent of dexamethasone control, DMSO zero
# How it was run: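 MMTV-bla HeLa, beta-lactamase reporter; medium with 1% charcoal/dextran-stripped FBS; cpds up to 92 uM, 18 h, 37 C; CCF4 readout 460/530 nm; Hill fit → EC50, efficacy vs 0.1 uM dexamethasone = 100%.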
# [3] = biological target: Peroxisome proliferator-activated receptor gamma (Homo sapiens) (UniProt P37231); experiment: qHTS assay for small molecule antagonists of peroxisome proliferator-activated receptor gamma signaling (AID 588537; active = well fitted inhibition curve with a large enough effect in the signal ratio, with a control signal flat, not every such curve was filed as active; inconclusive = small, poorly fitted or top-dose-only effect, or effect the other way, or a change in a side signal; the % refers to the signal ratio; also: potency is read from the fitted curve at half-maximal effect;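 also: reporter cells co-stimulated with 50 nM rosiglitazone agonist during compound treatment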; as to activity, negative = inhibition: % of control where 0% means no effect); conditions: HEK293 PPARg-UAS-bla, beta-lactamase ratio, antagonist mode; activity, negative = inhibition: at 76.8 µM (top of the series) unless noted
# How it was run: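 We seeded GeneBLAzer HEK293 reporter cells at 3000 per well, allowed 6-6.5 h attachment at 37 C, then co-treated with test compound titrations and 50 nM rosiglitazone overnight (16 h). Inhibition was quantified from 460/530 nm emission ratios.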
# [4] = qHTS assay to identify small molecules that stimulate interleukin-8 (IL-8) secretion (AID 651758; active = well fitted activation curve with a large enough effect in the signal ratio; inconclusive = small, poorly fitted or top-dose-only effect, or effect the other way, or a change in a side signal; the % refers to the signal ratio; also: potency is read from the fitted curve at half-maximal effect; as to activation: 0% is about no effect); conditions: HTRF ratio (665/615); activation: at 92.2 µM (top of the series)
# How it was run: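 THP-1, 2000 cells/well; cpd 16 h, 37 C; add cryptate + XL665 anti-IL-8 Abs; RT 1-3 h; TR-FRET read.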
# [5] = biological target: Glucocorticoid receptor (Homo sapiens) (UniProt P04150); experiment: qHTS assay for small molecule antagonists of glucocorticoid receptor signaling (AID 588533; active = well fitted inhibition curve with a large enough effect in the signal ratio, with a control signal flat, not every such curve was filed as active; inconclusive = small, poorly fitted or top-dose-only effect, or effect the other way, or a change in a side signal; the % refers to the signal ratio;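 also: cells stimulated with 2 nM dexamethasone as agonist; potency is read from the fitted curve at half-maximal effect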); conditions: HeLa MMTV-bla, GRE beta-lactamase ratio, antagonist mode, 18 h; activity change, negative = inhibition: at 76.8 µM (top of the series)
# [6] = biological target: Peroxisome proliferator-activated receptor delta (Homo sapiens) (UniProt Q03181); experiment: qHTS assay for small molecule agonists of peroxisome proliferator-activated receptor delta signaling (AID 588534); conditions: HEK293T PPARdelta-UAS-bla, beta-lactamase ratio, 18 h; activation: at 76.7 µM (top of the series) unless noted; also: potency is read from the fitted curve at half-maximal effect;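 as to activation: 0% = DMSO basal wells and 100% = positive control agonist at 10 µM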
# UniProt Q03181, sequence (Q03181 whole entry, looked up): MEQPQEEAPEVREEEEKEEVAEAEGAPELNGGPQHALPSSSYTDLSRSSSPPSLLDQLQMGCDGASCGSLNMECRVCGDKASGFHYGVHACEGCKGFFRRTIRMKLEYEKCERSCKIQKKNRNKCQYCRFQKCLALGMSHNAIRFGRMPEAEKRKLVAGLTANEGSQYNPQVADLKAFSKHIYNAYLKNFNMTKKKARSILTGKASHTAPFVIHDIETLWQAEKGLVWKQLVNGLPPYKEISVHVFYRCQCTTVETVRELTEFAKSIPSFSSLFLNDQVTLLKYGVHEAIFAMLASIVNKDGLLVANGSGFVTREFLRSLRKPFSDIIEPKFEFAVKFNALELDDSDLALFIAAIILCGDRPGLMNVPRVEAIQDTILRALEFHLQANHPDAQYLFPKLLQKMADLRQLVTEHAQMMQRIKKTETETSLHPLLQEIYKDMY
# How it was run: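 Fluorescence from CCF4 substrate cleavage by beta-lactamase reporter, read 2 hrs at RT, measured agonist activity. Compounds were tested with 18 hrs exposure at 37 C. Concentration-response data fitted to Hill equation.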
# [7] = biological target: Retinoic acid receptor RXR-alpha (Homo sapiens) (UniProt P19793); experiment: qHTS assay for small molecule antagonists of retinoid X receptor alpha signaling (AID 588546; active = well fitted inhibition curve with a large enough effect in the signal ratio, with a control signal flat, not every such curve was filed as active; inconclusive = small, poorly fitted or top-dose-only effect, or effect the other way, or a change in a side signal; inactive = no such curve, though single readings can be large or run the other way; the % refers to the signal ratio;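 also: cells stimulated with 9-cis-retinoic acid as agonist; % is scaled to controls: 0 for no effect and ±100 for the full control effect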); conditions: HEK293T RXRa-UAS-bla, beta-lactamase ratio, antagonist mode
# UniProt P19793, sequence (P19793 whole entry, looked up): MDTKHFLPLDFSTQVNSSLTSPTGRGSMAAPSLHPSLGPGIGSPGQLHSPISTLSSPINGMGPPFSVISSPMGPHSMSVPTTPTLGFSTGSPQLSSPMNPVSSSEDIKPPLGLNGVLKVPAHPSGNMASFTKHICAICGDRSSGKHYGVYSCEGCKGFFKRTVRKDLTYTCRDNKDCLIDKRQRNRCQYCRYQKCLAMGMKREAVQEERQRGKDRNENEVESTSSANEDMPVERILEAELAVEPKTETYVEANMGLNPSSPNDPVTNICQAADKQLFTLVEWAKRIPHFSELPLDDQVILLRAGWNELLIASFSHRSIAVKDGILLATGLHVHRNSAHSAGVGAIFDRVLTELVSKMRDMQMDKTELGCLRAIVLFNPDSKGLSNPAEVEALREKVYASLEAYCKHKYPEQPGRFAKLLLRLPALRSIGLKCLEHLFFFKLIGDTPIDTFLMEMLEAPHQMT
# How it was run: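 Beta-lactamase reporter inhibition, read as CCF4 fluorescence ratio (ex 405, em 460/530 nm) after 2 h at RT. HEK293T UAS-bla cells, 2500/well, were stimulated with 9-cis-RA at 500 or 100 nM final alongside test compound for 18 h at 37 C.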
# [8] = qHTS assay for small molecule agonists of the antioxidant response element (ARE) signaling pathway (AID 651741; active = well fitted activation curve with a large enough effect in the signal ratio; inconclusive = small, poorly fitted or top-dose-only effect, or effect the other way, or a change in a side signal; the % refers to the signal ratio; also: potency is read from the fitted curve at half-maximal effect; as to activation: % of control where 0% means no effect); conditions: HepG2 ARE-bla reporter, beta-lactamase FRET ratio, 16 h; activation: at 96 µM (top of the series) unless noted
# How it was run: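 Compounds in DMSO are pinned onto HepG2 ARE-bla cells (2,000/well) that were preincubated 5 h; plates stay 16 h at 37 C, then beta-lactamase activity is detected with LiveBLAzer B/G substrate by fluorescence.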
# [9] = qHTS assay for small molecule agonists of the antioxidant response element (ARE) signaling pathway measured by Nrf2-dependant transcriptional activity (AID 720636; active = well fitted curve in the direction sought with a large enough effect in the repeat runs; inconclusive = weak or mixed curves; inactive = no such curve, though single readings can be large; an effect the other way counts as inactive or inconclusive; also: potency is read from the fitted curve at half-maximal effect)
# How it was run: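 ARE-luc HepG2 cells carrying an Nrf2-responsive luciferase reporter were plated in medium with 1% dialyzed FBS, left 6 hr at 37 C to attach, then exposed to compound for 16 hr. Luciferase luminescence was read after ONE-Glo addition.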
# [10] = Cell Viability - LYMP2-001 (AID 921; active = well fitted curve in the direction sought with a large enough effect; inconclusive = small, poorly fitted or top-dose-only effect, or another doubt; inactive = no such curve, though single readings can be large; an effect the other way counts as inactive or inconclusive;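 also: cells exposed to compound for 24 h at 37 °C; 0% = DMSO only and full inhibition = tetraoctylammonium bromide control wells; nearly all actives have a fitted effect of over 70% in size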); conditions: LYMP2-001 lymphoblastoid cell viability; activity change, negative = cytotoxic: at 92.2 µM (top of the series)
# How it was run: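 qHTS, 1536-well; lymphoblastoid cells, 24 hr compound, 37 C; ATP by CellTiter-Glo, 30 min RT; luminescence; Hill-fit AC50.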
# [11] = MultiTox-Fluor Cytotoxicity Assay - LYMP1-001 - Live Cells (AID 947; active = well fitted curve in the direction sought with a large enough effect; inconclusive = small, poorly fitted or top-dose-only effect, or another doubt; inactive = no such curve, though single readings can be large; an effect the other way counts as inactive or inconclusive; also: potency is read from the fitted curve at half-maximal effect;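 as to activity change, negative = cytotoxicity: 0% = DMSO only and full inhibition = tetraoctylammonium bromide control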)
# [12] = biological target: Thyroid hormone receptor beta (Homo sapiens) (UniProt P10828); experiment: qHTS assay for small molecule antagonists of thyroid hormone receptor beta signaling (AID 588547; active = well fitted inhibition curve with a large enough effect in the signal ratio, with a control signal flat, not every such curve was filed as active; inconclusive = small, poorly fitted or top-dose-only effect, or effect the other way, or a change in a side signal; the % refers to the signal ratio; also: potency is read from the fitted curve at half-maximal effect;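 as to activity change % (negative = inhibition): cells stimulated with 0.4 nM T3 agonist during compound exposure; % is scaled to controls: 0 for no effect and ±100 for the full control effect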); conditions: TR-UAS-bla HEK293, beta-lactamase ratio, antagonist mode, 18 h
# UniProt P10828, sequence (P10828 whole entry, looked up): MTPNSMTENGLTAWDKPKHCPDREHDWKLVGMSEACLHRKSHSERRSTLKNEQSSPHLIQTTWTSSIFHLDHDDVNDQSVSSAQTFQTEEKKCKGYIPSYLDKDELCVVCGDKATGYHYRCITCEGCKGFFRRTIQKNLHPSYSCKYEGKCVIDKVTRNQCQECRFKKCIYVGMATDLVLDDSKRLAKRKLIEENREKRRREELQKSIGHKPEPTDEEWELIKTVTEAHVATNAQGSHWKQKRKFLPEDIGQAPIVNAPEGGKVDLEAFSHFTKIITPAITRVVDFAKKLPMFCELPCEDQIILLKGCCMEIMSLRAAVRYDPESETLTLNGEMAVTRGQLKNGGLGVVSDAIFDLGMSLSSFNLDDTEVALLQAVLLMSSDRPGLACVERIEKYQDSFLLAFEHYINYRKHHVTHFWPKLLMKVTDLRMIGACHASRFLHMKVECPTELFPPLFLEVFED
# How it was run: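 TR-UAS-bla GripTite HEK293 cells in 2% charcoal/dextran FBS medium were preincubated 4 h at 37 C, given compound (0.59 nM to 92 uM) plus 0.4 nM T3 (final) for 18 h, then CCF4 for 2 h at RT; Hill fit gave IC50.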
# [13] = biological target: Bile acid receptor (Homo sapiens) (UniProt Q96RI1); experiment: qHTS assay for small molecule agonists of farnesoid X receptor signaling (AID 588527); conditions: HEK293T FXR-UAS-bla, beta-lactamase ratio, 16 h; activation: stronger effect = higher value; also: potency is read from the fitted curve at half-maximal effect;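 as to activation: 0% = vehicle basal and 100% = reference agonist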
# How it was run: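 FXR-UAS-bla HEK293T cells (10% dialyzed FBS) preincubated 5-7 h at 37 C, then compounds at up to 92 uM for 16 h at 37 C. CCF4 beta-lactamase read-out after 2 h RT. Normalized to chenodeoxycholic acid (100 uM) and DMSO; Hill fit gave EC50 and efficacy.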
# [14] = biological target: Vitamin D3 receptor (Homo sapiens) (UniProt P11473); experiment: qHTS assay for small molecule agonists of vitamin D receptor signaling (AID 588543); conditions: HEK293T VDR-UAS-bla, beta-lactamase ratio, 16 h; activation: at 76.8 µM (top of the series); also: potency is read from the fitted curve at half-maximal effect
# How it was run: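 qHTS in agonist mode: compound titrations stimulate a VDR-driven β-lactamase reporter in HEK293T cells over 16 h at 37 °C. Response normalized to 50 nM 1α,25-dihydroxyvitamin D3 = 100%, DMSO = 0%; Hill fitting gives EC50 and maximal response.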
# [15] = Cell Viability - LYMP2-019 (AID 973; active = well fitted curve in the direction sought with a large enough effect; inconclusive = small, poorly fitted or top-dose-only effect, or another doubt; inactive = no such curve, though single readings can be large; an effect the other way counts as inactive or inconclusive;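 also: cells exposed to compound for 24 h at 37 °C; 0% = DMSO alone and full effect = 92 µM tetraoctylammonium bromide; nearly all actives have a fitted effect of over 55% in size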)
# How it was run: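 Luminescent ATP read-out (CellTiter-Glo, 30 min room temperature) served as the viability measure after 24 hr treatment of lymphoblastoid cells at 37 C. Concentration-response data were fitted to the Hill equation for AC50.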
# [16] = biological target: Peroxisome proliferator-activated receptor delta (Homo sapiens) (UniProt Q03181); experiment: qHTS assay for small molecule antagonists of peroxisome proliferator-activated receptor delta signaling (AID 588535; active = well fitted inhibition curve with a large enough effect in the signal ratio, with a control signal flat, not every such curve was filed as active; inconclusive = small, poorly fitted or top-dose-only effect, or effect the other way, or a change in a side signal; inactive = no such curve, though single readings can be large or run the other way; the % refers to the signal ratio); conditions: HEK293T PPARd-UAS-bla, beta-lactamase FRET ratio, 18 h; activity change, negative = inhibition: at 76.7 µM (top of the series) unless noted
# How it was run: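 Reporter: UAS-bla under PPAR-delta response element, HEK293T host. Medium: 2% charcoal/dextran FBS. Dosing: titration, 18 hrs, 37 C. Detection: CCF4, 2 hrs RT, 405 ex/460 and 530 em.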
# [17] = biological target: Thyroid hormone receptor beta (Homo sapiens) (UniProt P10828); experiment: qHTS assay for small molecule agonists of thyroid hormone receptor beta signaling (AID 588545); conditions: TR-UAS-bla GripTite HEK 293, beta-lactamase ratio, agonist mode, 18 h; activation: at 76.7 µM, percent of T3 response, DMSO as zero
# How it was run: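 Agonist activity was read as beta-lactamase CCF4 fluorescence (405 ex, 460/530 em), scaled between DMSO (0%) and 10 nM T3 (100%), then Hill-fitted for EC50 and efficacy. HEK 293 TR-UAS-bla cells in 2% charcoal/dextran FBS medium were exposed 18 h at 37 C.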
# [18] = Cell Viability - LYMP2-025 (AID 976; active = well fitted curve in the direction sought with a large enough effect; inconclusive = small, poorly fitted or top-dose-only effect, or another doubt; inactive = no such curve, though single readings can be large; an effect the other way counts as inactive or inconclusive;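 also: cells exposed to compound for 24 h at 37 °C; plate controls were DMSO only for no effect and tetraoctylammonium bromide control for full effect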); conditions: LYMP2-025 lymphoblastoid cell viability; activity change, negative = cytotoxicity: at 92.2 µM (top of the series)
# How it was run: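 Seed 2500 LYMP2-025 cells/well; 5 hr at 37 C; add compound; 24 hr at 37 C; add CellTiter-Glo; 30 min RT; read luminescence. AC50 from Hill-modelled concentration-response.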
# [19] = biological target: Retinoic acid receptor RXR-alpha (Homo sapiens) (UniProt P19793); experiment: qHTS assay for small molecule agonists of retinoid X receptor alpha signaling (AID 588544); conditions: HEK293T RXRa-UAS-bla, beta-lactamase reporter, 18 h; activation: at 76.7 µM (top of the series);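 also: 0% = DMSO basal wells and 100% = reference agonist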
# [20] = biological target: Cytochrome P450 3A4 (Homo sapiens) (UniProt P08684); experiment: qHTS Assay for Inhibitors and Substrates of Cytochrome P450 3A4 (AID 884; active = well fitted curve in the direction sought with a large enough effect; inconclusive = small, poorly fitted or top-dose-only effect, or another doubt; inactive = no such curve, though single readings can be large; an effect the other way counts as inactive or inconclusive; also: % is scaled to controls: 0 for no effect and ±100 for the full control effect; nearly all actives have a fitted effect of over 50% in size); conditions: recombinant CYP3A4, Luciferin-PPXE luminescence; activity change, negative = inhibition: at 57.1 µM (top of the series) unless noted
# UniProt P08684, sequence (P08684 whole entry, looked up): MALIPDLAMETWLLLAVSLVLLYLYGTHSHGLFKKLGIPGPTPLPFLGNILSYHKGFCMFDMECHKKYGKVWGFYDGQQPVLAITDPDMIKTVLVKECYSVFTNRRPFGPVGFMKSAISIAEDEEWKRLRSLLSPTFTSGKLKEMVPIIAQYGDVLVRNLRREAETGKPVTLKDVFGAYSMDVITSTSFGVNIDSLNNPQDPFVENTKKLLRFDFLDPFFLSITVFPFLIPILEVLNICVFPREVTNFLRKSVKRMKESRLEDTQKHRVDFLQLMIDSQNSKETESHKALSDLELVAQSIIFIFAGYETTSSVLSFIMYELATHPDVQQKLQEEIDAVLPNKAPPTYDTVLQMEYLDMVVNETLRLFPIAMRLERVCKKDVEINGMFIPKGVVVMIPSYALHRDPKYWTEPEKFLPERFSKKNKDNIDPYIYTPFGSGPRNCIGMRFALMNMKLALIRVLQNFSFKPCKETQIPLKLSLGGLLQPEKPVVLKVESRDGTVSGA
# How it was run: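 20 nM human CYP3A4 with 25 uM Luciferin-PPXE (at KM) in 200 mM KPO4, preincubated 10 min with compound; NADPH regeneration started a 60 min RT reaction. Luciferin detected by luminescence, normalized to 57 uM ketoconazole as full inhibition.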
# [21] = qHTS assay for cell viability of the p53RE-bla HCT-116 cell line (AID 743292; active = well fitted curve in the direction sought with a large enough effect; inconclusive = small, poorly fitted or top-dose-only effect, or another doubt; inactive = no such curve, though single readings can be large; an effect the other way counts as inactive or inconclusive; also: % is scaled to controls: 0 for no effect and ±100 for the full control effect; nearly all actives have a fitted effect of over 55% in size)
# How it was run: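 CellSensor p53RE-bla HCT-116 cells, 4,000/well, preincubated 5 h at 37 C, then exposed to compounds in DMSO for 16 h at 37 C. Viability read as CellTiter-Glo luminescence (intracellular ATP) after 30 min at room temperature.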
# Tags tell the direction and shape of the fitted curve or compound fluorescence and quenching.
smiles,measurement,setting,value
CCCCOCCOCCSC#N,Potency,[1],inactive
same,Potency,[2],"inconclusive: 562 nM [side channel, falling, full curve, poor fit]"
same,Potency,[3],"inconclusive: 31600 nM [side channel, rising, single point]"
same,Potency,[4],"inconclusive: 47300 nM [activator, partial curve, poor fit]"
CC(C)C[C@H](NC(=O)OCC1c2ccccc2-c2ccccc21)C(=O)O,Potency,[5],"inconclusive: 17800 nM [inhibitor, partial curve, poor fit]"
same,Potency,[6],"inconclusive: 31600 nM [side channel, rising, partial curve]"
same,max response,[7],inconclusive: -47.1%
same,Potency,[8],"inconclusive: 27.3 µM [activator, partial curve, poor fit]"
same,Potency,[9],"inconclusive: 1370 nM [activator, full curve, poor fit]"
O=C(O)c1cccc([N+](=O)[O-])c1,Potency,[10],inactive
same,Potency,[11],inactive
same,Potency,[2],"inconclusive: 50.1 nM [side channel, rising, full curve, poor fit]"
same,Potency,[8],"inconclusive: 75 µM [activator, single point] and inactive"
CC(C)c1ccc(C(C)C)cc1,activation,[2],inactive: 1.07%
same,"activity, negative = inhibition",[3],inconclusive: 9.61%
same,Potency,[12],"inconclusive: 224 nM [side channel, falling, full curve, poor fit]"
CC(C)CCCCCOC(=O)CS,activation,[2],inactive: 5.28%
CCCCN(CCCC)CCCC,Potency,[13],"inconclusive: 1 nM [side channel, falling, full curve, poor fit]"
same,Potency,[14],"inconclusive: 2.5 nM [side channel, falling, full curve]"
same,Potency,[8],inactive
CC#N,Potency,[15],inactive
same,activation,[2],inactive: -2.4%
same,Potency,[16],inactive
same,activation,[17],inactive: -22.1%
same,Potency,[4],inactive
Nc1ccccc1[N+](=O)[O-],Potency,[18],inactive
same,activation,[13],inactive: -3.44%
same,activation,[17],inconclusive: -54%
same,Potency,[8],inactive
CC1(C)C(=O)N(Cl)C(=O)N1Cl,Potency,[2],"inconclusive: 2.8 nM [side channel, falling, full curve, poor fit]"
same,Potency,[3],inactive
same,Potency,[19],inactive
same,activity change % (negative = inhibition),[12],inactive: -0.904%
CCOCCOCCOCC,activation,[2],inactive: -5.25%
same,Potency,[6],inactive
same,Potency,[3],inactive
same,activation,[8],inconclusive: -2.36%
CC(C)C=O,Potency,[20],inactive
same,Potency,[11],"inconclusive: 501 nM [cytotoxic, full curve, poor fit]"
same,Potency,[2],"inconclusive: 63100 nM [side channel, falling, partial curve, poor fit]"
same,Potency,[16],inactive
same,"activity, negative = inhibition",[3],inconclusive: 5.08%
same,activity change % (negative = inhibition),[12],inactive: -10%
same,Potency,[4],inactive
same,Potency,[21],inactive
